Results taken from PubChem BioAssay AID463173 (ICCB-Longwood Screening Facility, Harvard Medical School, 2010).
In all, about 52,000 compounds went through this assay and about 1,700 (3.3%) were called active. Cut-off read from the data, not from the text of the source: active = survival mostly below about 52% (no sharp cut-off); inactive = mostly above about 56%. This is one part of the list.

What follows are molecules tested on Wild type (assay: S. aureus survival, RN4220 and DeltatarO strains – OD600, teichoic acid synthesis inhibitors, primary screen (AID 463173)). Details: S. aureus RN4220 wild type/DeltatarO growth, OD600, 18 h, stronger effect = lower value, screened at 18.75 µg/mL (by protocol).

SMILES | survival
CCOc1ccc(CCNC(=O)c2cnc3sc(N4CCCCC4)nn3c2=O)cc1 | inactive: 68%
COC(=O)Cc1c(C)nc2nc(-c3ccc(C)cc3)[nH]n2c1=O | inactive: 89%
COc1ccc(N2C(=O)CSC23C(=O)N(CC(N)=O)c2ccccc23)cc1 (stereo not drawn) | inactive: 84%
CCN(Cc1ccccc1)S(=O)(=O)c1ccc(F)c(C(=O)Nc2cc(C(F)(F)F)ccc2Cl)c1 | active: -1%
CC(C)c1ccc(N2C(=O)N(Cc3ccccc3Cl)c3ccccc3S2(=O)=O)cc1 | inactive: 68%
COc1ccc(-n2c(=O)c3sc4ccccc4c3n(CC(=O)NC3CCCCC3)c2=O)cc1 | inactive: 88%
O=C(Nc1cc(C(F)(F)F)ccc1Cl)c1cnn(-c2ccccc2)c1-n1cccc1 | active: -3%
COC(=O)c1ccc([C@H]2Nc3ccc(S(=O)(=O)Nc4cccc(C)c4)cc3[C@H]3C=CC[C@H]32)cc1 | inactive: 68%
N#C/C(=C\c1cn(CC(=O)NCC2CCCO2)c2ccccc12)C(=O)N1CCCC1 (stereo not drawn) | inactive: 110%
COc1ccccc1C1CC(=O)N(c2cccc(C(F)(F)F)c2)C2=C1C(=O)OC2 (stereo not drawn) | inactive: 73%
CCCCOc1ccc(C(=O)N(Cc2ccco2)Cc2ccco2)cc1 | inactive: 108%
COc1ccc(-n2c(=O)c3c(c4cc(OC)ccc4n3C)n(CCC(C)C)c2=O)cc1 | inactive: 112%
COCCNC(=O)CCCn1c(SCc2ccccc2Cl)nc2c(sc3ccccc32)c1=O | inactive: 152%
COc1ccc(OCC(=O)Nc2ccc(-c3nc4ncccc4o3)cc2)cc1 | inactive: 119%
Cc1cc(Br)cc2c(C(=O)OCC(=O)c3ccccc3)cc(-c3ccccc3)nc12 | inactive: 128%
Cc1c(-c2nnc(SCC(=O)Nc3ccc(Cl)cc3)o2)nnn1-c1ccc(F)cc1 | inactive: 72%
O=S(=O)(c1ccccc1)N1CCC(O)(c2ccccc2)C2CCCCC21 (stereo not drawn) | inactive: 125%
Cc1cccc(N(CC(N)=O)C2SC(=O)N(Cc3cccc(C(=O)O)c3)C2=O)c1 (stereo not drawn) | inactive: 70%
CCC(=O)Nc1nnc2n1CCS2 | inactive: 77%
CCN1CCSc2ccc(C(=O)NCc3ccccc3Br)cc21 | inactive: 84%
Cc1cc(CN2CCN(c3ccc(F)cc3)CC2)cs1 | inactive: 86%
O=c1[nH]c(SCc2cccc(Cl)c2)nc2c1CCC2 | inactive: 91%

SMILES | survival
O=S(=O)(NC1CCCCC1)c1cc(Cl)ccc1Cl | inactive: 118%
COc1ccccc1N1CCN(C(=O)c2cnc(N3CCOCC3)c3ccccc23)CC1 | inactive: 85%
COc1ccc(Cn2c(CO)cnc2SCc2cccc(C)c2)cc1 | inactive: 78%
COc1ccccc1N1CCN(C(=O)CCS(=O)(=O)c2cc(Br)cc3c2N(C(C)=O)CC3)CC1 | inactive: 69%
COc1ccc(CNC(=O)c2cc3c(=O)n(C)c4ccccc4c3n2C)c(OC)c1 | inactive: 66%
Cc1cc(C)c2oc(-c3ccc(C)c(NC(=O)/C=C/c4ccco4)c3)nc2c1 | inactive: 59%
O=C(COc1ccc(Cl)cc1)NCC(c1ccco1)S(=O)(=O)c1ccc(Cl)cc1 (stereo not drawn) | inactive: 78%
Cc1nc(N2CCCC2)ncc1C(=O)N1CCN(c2ccccc2F)CC1 | inactive: 74%
CCC(C)(C)NS(=O)(=O)c1cccs1 | inactive: 93%
COc1cccc(-c2nc(S(=O)(=O)c3ccccc3)c(N3CCC(C)CC3)o2)c1 | inactive: 43%
COc1ccc(/C=C/C(=O)O)cc1S(=O)(=O)N1CCCC1 | inactive: 101%
Cc1ccc(C(=O)n2nc(C)c(S(=O)(=O)N3CCOCC3)c2C)cc1C | inactive: 82%
CC1=C(C(=O)Nc2ccccc2)C(c2cc(Br)ccc2F)n2ncc(C(=O)Nc3ccccc3)c2N1 (stereo not drawn) | inactive: 134%
CCS(=O)(=O)c1c(Nc2cc(C)ccc2C)sc(C(=O)c2ccccc2)c1N | inactive: 82%
Cc1ccc(NC(=O)c2nnn(CC(=O)Nc3ccc(C)c(Cl)c3)c2N)c(C)c1 | inactive: 130%
O=C(c1nc2ncccn2n1)N1CCN(C(c2ccccc2)c2ccccc2)CC1 | inactive: 118%
O=c1c2ccccc2nc(-c2ccc(Cl)cc2)n1CCCOc1ccccc1F | inactive: 64%
CC(C)c1ccc(NC(=O)CC2Oc3ccccc3NC2=O)cc1 (stereo not drawn) | inactive: 99%
Cc1cc(OCC(=O)N(Cc2ccc(N(C)C)cc2)C2CCS(=O)(=O)C2)cc(C)c1Cl (stereo not drawn) | inactive: 89%
COc1ccc(NC(=O)Cn2c(=O)n(-c3ccc(OC)cc3)c(=O)c3ccc(C(=O)NCc4ccc(C)cc4)cc32)cc1 | inactive: 80%
COc1cc(C(=O)NCCc2csc3nc(-c4ccccc4C)nn23)cc(OC)c1OC | inactive: 117%
CC(C)Nc1c(-c2ccccc2)nc2ccccn12 | inactive: 108%

SMILES | survival
Cc1ccc(Cl)cc1NC(=O)CN1C(=O)COc2ccc(S(=O)(=O)N3CCCCCC3)cc21 | inactive: 82%
COc1ccccc1CCNC(=O)CCc1c(C)c2cc3c(C)c(C)oc3cc2oc1=O | inactive: 109%
Cc1ccc(NC(=O)C(=O)NCC(c2ccc3c(c2)OCO3)N2CCN(c3ccccc3)CC2)cc1 (stereo not drawn) | inactive: 75%
CCN(C(=O)C(Cc1ccccc1)NS(=O)(=O)c1cccc2nsnc12)c1ccccc1 (stereo not drawn) | inactive: 74%
O=C(c1cccs1)c1cn(CCOc2ccccc2Cl)c2ccccc12 | inactive: 80%
CCOc1ccc(CCNC(=O)c2ccc(-c3nc(COc4ccc(C)cc4)c(C)o3)cc2)cc1 | inactive: 81%
COc1ccc(NC(=O)CSc2nc(-c3ccc(F)cc3)c3cccc(C)c3n2)cc1 | inactive: 85%
Cc1ccc(C)c(NC(=O)CCc2c(C)nn(-c3ccc(N4CCCC4)nn3)c2C)c1 | inactive: 60%
COc1ccc(CCNC(=O)c2ccc(Cn3c(=O)c4ccccc4n(Cc4ccc(C)cc4)c3=O)cc2)cc1OC | inactive: 99%
COc1ccc(C2C(=O)N(C3CCCCCC3)CC(=O)N2CCc2ccc(OC)c(OC)c2)cc1 (stereo not drawn) | inactive: 98%
Cc1ccc2nc(CN3CCN(C(=O)Nc4ccc(C)c(F)c4)CC3)oc2c1 | inactive: 84%
CCCCCC(=O)Nc1ccc(Cc2ccncc2)cc1 | inactive: 113%
COCCCn1c(SCC(=O)Nc2ccccc2OC)nc2c(sc3ccccc32)c1=O | inactive: 90%
COC(=O)c1ccc(OC)c(Cn2c(=O)n(-c3cccc(Cl)c3)c(=O)c3c4c(sc32)CN(C(C)=O)CC4)c1 | inactive: 75%
COc1ccc(-c2oc3ncn4nc(COc5ccccc5C)nc4c3c2-c2ccc(OC)cc2)cc1 | inactive: 72%
CCOC(=O)C1CCCN(C(=O)Cn2ncn3c(cc4sc(CC)cc43)c2=O)C1 (stereo not drawn) | inactive: 74%
CCC1=Nc2cc(C(=O)NCc3ccc(C)cc3)ccc2Sc2ccc(C)cc21 | inactive: 74%
CCCCN(C)CCCNC(=O)c1cc(-c2cccnc2)nc2ccccc12 | inactive: 77%
COc1cc(OC)c(NC(=O)Cc2ccc(-n3c(C)nc4cccnc43)cc2)cc1Cl | inactive: 124%
O=C(Nc1ccc(F)cc1)[C@@H](c1ccccc1)N1Cc2ccccc2C1=O | inactive: 59%
COc1ccc(CCNC(=O)CCc2cn(Cc3ccc(C)cc3)c3ccccc23)c(OC)c1OC | inactive: 77%
CCOc1cc2[nH]c(=O)n(CCCCC(=O)N3CCN(c4ccccc4)CC3)c(=O)c2cc1OCC | inactive: 73%

SMILES | survival
CCC(C)NC(=O)c1[nH]c2cc(C)ccc2c1Sc1ccc(Cl)cc1 (stereo not drawn) | inactive: 96%
COc1ccc(-c2noc(N3CCC(C(=O)N(C)c4cc(Cl)ccc4OC)CC3)n2)cc1 | inactive: 85%
O=C(Nn1cnnc1)c1cc2ccccc2oc1=O | inactive: 111%
COc1ccc2c(CNCCc3cccs3)c(C(=O)O)n(Cc3ccccc3C)c2c1 | inactive: 93%
O=C(CN1C(=O)COc2ccc(S(=O)(=O)N3CCCCCC3)cc21)N1CCN(c2cccc(C(F)(F)F)c2)CC1 | inactive: 80%
Cc1cccc(N2CCN(C(=O)C3CCN(S(=O)(=O)c4c(C)noc4C)CC3)CC2)c1C | inactive: 87%
COc1ccc2oc(=O)c(-c3cn4c(n3)sc3cc(F)ccc34)cc2c1 | inactive: 67%
Cc1cccc(C)c1OCC(=O)Nc1c(C(=O)c2ccc(Br)cc2)oc2ccccc12 | inactive: 76%
O=C(Nc1ccc(S(=O)(=O)N2CCCCC2)cc1)C1CCCCC1 | inactive: 106%
CCCn1c2ccccc2c2cnn(CC(=O)N(Cc3ccccc3)C(C)C)c(=O)c21 | inactive: 134%
CCCOc1ccc(-c2nc(N3CCC(C)CC3)c3ccccc3n2)cc1 | active: -2%
CCCCOc1ccc(S(=O)(=O)NCc2csc(-c3ccc(OC)cc3)n2)cc1 | inactive: 85%
COc1ccc(CC(=O)NCC(c2cccs2)S(=O)(=O)c2ccc(Cl)cc2)cc1 (stereo not drawn) | inactive: 73%
Cc1cc(F)ccc1NC(=O)c1ccc2nc(Cc3ccccc3)oc2c1 | inactive: 88%
COc1ccc(-n2ccn(CC(=O)NCc3ccc(C)cc3)c(=O)c2=O)cc1OC | inactive: 85%
Cc1ccc(OC(=O)c2ccco2)cc1C | inactive: 105%
Cc1ccc(S(=O)(=O)NCCc2nnc3ccc(SCc4ccc(F)cc4)nn23)cc1 | inactive: 105%
Cc1c(C(=O)N2CCCC2)oc2c1-c1nn(CC(=O)NC(C)c3ccccc3)cc1CC2 (stereo not drawn) | inactive: 84%
Cc1cn(C(=O)c2ccccc2)c(=O)[nH]c1=O | inactive: 107%
CCC(C(=O)Nc1cc(OC)ccc1OC)n1c(C)c2cnn(-c3ccccc3)c(=O)c2c1C (stereo not drawn) | inactive: 131%
Cc1ccc2oc(C(=O)Nc3cccc(-c4nc5ccccc5s4)c3)c(C)c2c1 | inactive: 72%
Cc1ccc(Nc2ncc(C(=O)N3CCN(c4cccc(Cl)c4)CC3)c3ccccc23)cc1Cl | inactive: 108%
